In PMC11845791 one finds binding data, which are given here for two molecules.

Results are given in words; binding and its absence hold for the method and conditions named. In cells and extracts the contact can be indirect. Some results given as binding are weak or reduced against the parent protein; the word gives no strength. For part of these data: Sequences can lack the tags named with a protein.

For test [1], the target named is T1, hexokinase 1 (HK1), endogenous in H292 isogenic cells (human (endogenous in H292)) (UniProt P19367).
T1 sequence: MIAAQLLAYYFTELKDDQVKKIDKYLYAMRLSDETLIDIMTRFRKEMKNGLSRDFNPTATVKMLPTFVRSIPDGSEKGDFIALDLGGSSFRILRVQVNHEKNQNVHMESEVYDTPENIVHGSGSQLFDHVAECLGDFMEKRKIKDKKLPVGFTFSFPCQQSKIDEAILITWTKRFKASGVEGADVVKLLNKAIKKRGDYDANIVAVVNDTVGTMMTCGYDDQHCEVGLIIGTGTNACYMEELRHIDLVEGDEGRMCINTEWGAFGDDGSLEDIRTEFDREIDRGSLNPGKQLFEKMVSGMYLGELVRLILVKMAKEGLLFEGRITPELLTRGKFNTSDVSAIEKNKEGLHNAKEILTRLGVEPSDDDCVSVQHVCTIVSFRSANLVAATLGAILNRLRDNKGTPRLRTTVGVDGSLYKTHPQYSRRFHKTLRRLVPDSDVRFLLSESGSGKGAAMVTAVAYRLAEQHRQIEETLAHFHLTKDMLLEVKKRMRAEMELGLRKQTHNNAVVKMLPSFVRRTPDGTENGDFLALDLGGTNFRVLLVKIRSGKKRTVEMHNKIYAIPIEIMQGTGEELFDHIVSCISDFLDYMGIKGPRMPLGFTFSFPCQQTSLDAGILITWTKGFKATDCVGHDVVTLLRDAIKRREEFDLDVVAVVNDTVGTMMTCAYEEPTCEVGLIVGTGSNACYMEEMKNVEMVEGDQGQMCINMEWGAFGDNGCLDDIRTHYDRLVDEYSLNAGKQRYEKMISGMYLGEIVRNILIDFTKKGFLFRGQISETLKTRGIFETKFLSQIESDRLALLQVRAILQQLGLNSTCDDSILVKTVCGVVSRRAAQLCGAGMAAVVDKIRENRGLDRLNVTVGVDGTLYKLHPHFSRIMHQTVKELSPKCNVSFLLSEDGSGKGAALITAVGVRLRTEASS
Description: co-IP; endogenous proteins; NP-40 lysates of H292 isogenic cells (KRAS WT and KRAS G12C) incubated with anti-NPPS or anti-HK1 at 4 °C overnight, Protein A/G magnetic beads 3 h; Western blot. In general terms: A western blot detects proteins with antibodies after separation by electrophoresis.

For test [2], the target named is T2, Flag-NPPS (human NPPS with a C-terminal 3 × Flag) (human) (UniProt P22413).
T2 sequence: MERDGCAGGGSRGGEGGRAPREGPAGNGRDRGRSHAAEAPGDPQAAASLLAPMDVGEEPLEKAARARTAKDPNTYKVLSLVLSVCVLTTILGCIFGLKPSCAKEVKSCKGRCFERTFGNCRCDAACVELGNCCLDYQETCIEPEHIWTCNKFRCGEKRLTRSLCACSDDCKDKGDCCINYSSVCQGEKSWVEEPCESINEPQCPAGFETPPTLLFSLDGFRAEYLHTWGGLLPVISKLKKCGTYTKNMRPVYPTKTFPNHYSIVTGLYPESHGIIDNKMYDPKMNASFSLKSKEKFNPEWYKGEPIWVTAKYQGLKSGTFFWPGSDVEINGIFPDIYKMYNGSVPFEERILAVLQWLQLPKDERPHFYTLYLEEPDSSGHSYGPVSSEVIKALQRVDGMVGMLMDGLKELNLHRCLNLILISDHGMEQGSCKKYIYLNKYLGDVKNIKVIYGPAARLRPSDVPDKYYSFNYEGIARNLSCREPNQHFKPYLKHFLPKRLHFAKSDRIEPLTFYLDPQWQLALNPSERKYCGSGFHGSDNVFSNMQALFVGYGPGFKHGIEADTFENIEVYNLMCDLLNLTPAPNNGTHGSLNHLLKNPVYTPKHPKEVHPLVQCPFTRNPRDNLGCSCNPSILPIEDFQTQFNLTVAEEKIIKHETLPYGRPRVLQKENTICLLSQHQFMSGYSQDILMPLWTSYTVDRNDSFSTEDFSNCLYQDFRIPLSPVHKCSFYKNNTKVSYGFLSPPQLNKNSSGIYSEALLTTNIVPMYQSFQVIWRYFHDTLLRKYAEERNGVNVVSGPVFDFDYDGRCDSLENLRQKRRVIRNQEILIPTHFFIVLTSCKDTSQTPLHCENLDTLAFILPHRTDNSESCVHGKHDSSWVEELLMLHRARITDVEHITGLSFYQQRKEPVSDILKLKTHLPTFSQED
Description: co-IP; HEK293T cells expressing Flag-NPPS or empty vector; NP-40 lysates with anti-FLAG M2 magnetic beads at 4 °C overnight; Western blot for HK1.

Test [3] has as its target T2, Flag-NPPS (human NPPS with a C-terminal 3 × Flag) (human). Description: co-IP; PC9 cells expressing Flag-NPPS or empty vector; NP-40 lysates with anti-FLAG M2 magnetic beads at 4 °C overnight; Western blot for HK1.

B1: nucleotide pyrophosphatase (NPPS), endogenous in H292 isogenic cells (protein, UniProt P22413 1-925)
chain: T2 sequence
As to B1, the binding entry in test [1] is recorded as “binds”.

B2: HK1 in HEK293T and PC9 cells expressing Flag-NPPS (Fig. S5a, b) (protein, UniProt P19367-1 1-917)
chain: T1 sequence
As to B2, the binding result in test [2] and in test [3] was “binds” each time.
